Measured values from ChEMBL document CHEMBL4888484, “Replenishing the malaria drug discovery pipeline: Screening and hit evaluation of the MMV Hit Generation Library 1 (HGL1) against asexual blood stage Plasmodium falciparum ,using a nano luciferase reporter read-out” (2022).
The whole screen tested about 150,000 compounds, of which about 540 (0.36%) showed an effect of 50% or more. The list shows a part of the results.

Each molecule was assayed on Plasmodium falciparum (assay: Primary screen in NF54 nanoGlo assay, in single point, at 2uM, 72h; a lower Z score goes with more inhibition). Details: timepoint 72 hour.
Type: functional, Erythrocyte

Question: How did the “% Inhibition” value turn out when CS(=O)(=O)N(CC(=O)NC1CC2CCC1C2)c1ccc(Oc2ccccc2)cc1 (stereo not given) was run?
Answer: The value was 7%.

Question: What about the Z score of the same molecule?
Answer: The Z score was -1.

Question: With CCc1nc(N2C[C@H](C)[C@@](O)(C3CC3)C2)ncc1C as the molecule, how does the “% Inhibition” value read?
Answer: Its value is -24%.

Question: What about the Z score of the same molecule?
Answer: Its Z score is 2.15.

Question: With Cc1cccc(CNC(=O)[C@@H]2CCCO2)c1Br as the molecule, how does the “% Inhibition” value read?
Answer: The value was -5%.

Question: What about the Z score of the same molecule?
Answer: Its Z score is 0.52.

Question: Which “% Inhibition” value does the source give for Cc1ccc(NC(=O)Cn2cc(S(=O)(=O)N3CCCCCC3)ccc2=O)c(C)c1 here?
Answer: Its value is -2%.

Question: And the Z score?
Answer: Its Z score is 0.3.

Question: What does the source list for CCCc1nc(N2CCN(C(=O)c3ccc(Cl)c(Cl)c3)CC2)c2c(-c3ccccc3)noc2n1?
Answer: % Inhibition: 1%; Z score: -0.07

Question: Which “% Inhibition” value does the source give for COc1cccc2c1nc(NC(=O)[C@H](C1CC1)N1CCCC1)n2C here?
Answer: Its value is 0%.

Question: What about the Z score of the same molecule?
Answer: Its Z score is 0.03.

Question: Which results are given for CCc1ncc(C(=O)N2CC[C@@]3(C2)C(=O)N(CC(N)=O)c2ccccc23)cn1?
Answer: % Inhibition: -3%; Z score: 0.56

Question: Which results are given for COc1cccc2c1CCCCN2C(=O)[C@H]1CC(=O)N(C2CC2)C1?
Answer: % Inhibition: -5%; Z score: 0.72

Question: With O=C(NCCNc1ncccn1)C1CC2CCC1C2 (stereo not given) as the molecule, how does the “% Inhibition” value read?
Answer: The value was -4%.

Question: What about the Z score of the same molecule?
Answer: The Z score was 0.73.

Question: For O=C(c1cccc(-c2cc(O)c(F)c(F)c2)c1)N1CCC[C@@]2(CCNC2)C1, which “% Inhibition” value is on record?
Answer: Its value is -5%.

Question: And the Z score?
Answer: The Z score was 0.5.

Question: Which results are given for CC(C)n1ncnc1NC(=O)N1Cc2ccc(Cl)cc2C1?
Answer: % Inhibition: 3%; Z score: -0.6

Question: Cc1ccsc1-c1cccc(C(=O)N(C)C[C@H]2COCCO2)c1 was tested. Which “% Inhibition” value did it give?
Answer: The value was -2%.

Question: What about the Z score of the same molecule?
Answer: The Z score was 0.48.

Question: With Cc1[nH]c2c(c1C(=O)NCc1noc(C3CC3)n1)C(=O)CCC2 as the molecule, how does the “% Inhibition” value read?
Answer: Its value is 3%.

Question: And the Z score?
Answer: The Z score was -0.44.

Question: What does the source list for CN(C)C(=O)C1C[C@@H]2OCC[C@@H]2N1C(=O)CCc1cccnc1 (stereo not given in full)?
Answer: % Inhibition: 0%; Z score: 0.02

Question: CC1CC(N(C)Cc2cccc(Cl)c2)C(=O)O1 (stereo not given) was tested. Which “% Inhibition” value did it give?
Answer: Its value is 37%.

Question: And the Z score?
Answer: The Z score was -3.77.

Question: Which results are given for COCC(=O)N1CC[C@H](Nc2nc(C(C)C)ccc2C#N)[C@@H](O)C1?
Answer: % Inhibition: 1%; Z score: -0.29

Question: Which results are given for O=C(Nc1ccc2c(c1)OCO2)N1CC(OC[C@H]2CCOC2)C1?
Answer: % Inhibition: 7%; Z score: -0.94

Question: Which results are given for O=C(c1ccc(Cl)cc1-n1cnnn1)N1CCC[C@H]1c1nc2ccccc2[nH]1?
Answer: % Inhibition: -6%; Z score: 0.74

Question: How did the “% Inhibition” value turn out when CCCn1cc(CN(C)Cc2nncn2C)c(C)n1 was run?
Answer: Its value is 7%.

Question: What about the Z score of the same molecule?
Answer: Its Z score is -0.95.

Question: With CC(C)(C)[C@H](NS(=O)(=O)Cc1ccon1)c1ccco1 as the molecule, how does the “% Inhibition” value read?
Answer: The value was 7%.

Question: And the Z score?
Answer: Its Z score is -0.69.

Question: What does the source list for Cc1cc(NC(=O)N[C@@H](C)Cc2ccco2)n(C)n1?
Answer: % Inhibition: -7%; Z score: 1.41

Question: Which results are given for O=C(c1cccnc1)N(Cc1ccco1)Cc1cc2ccccc2[nH]c1=O?
Answer: % Inhibition: 30%; Z score: -3.38

Question: C[C@H](Nc1cnn(CC(F)F)c1)c1nc(C2CC2)no1 was tested. Which “% Inhibition” value did it give?
Answer: The value was -4%.

Question: What about the Z score of the same molecule?
Answer: The Z score was 0.45.

Question: How did the “% Inhibition” value turn out when Cc1ccc(Nc2nc(C(=O)NCc3cccnc3)cs2)c(C)c1 was run?
Answer: Its value is -2%.

Question: What about the Z score of the same molecule?
Answer: The Z score was 0.25.

Question: Which “% Inhibition” value does the source give for O=C(c1cccc(C(F)(F)F)c1)N1CC(CN2CCCCC2)C(c2cccc(C(F)(F)F)c2)C1 (stereo not given) here?
Answer: The value was 2%.

Question: What about the Z score of the same molecule?
Answer: Its Z score is -0.25.

Question: How did the “% Inhibition” value turn out when Cc1ccc(C(=O)N2Cc3c(-c4ccncc4)nc(N)nc3[C@@H]2C)c(=O)[nH]1 was run?
Answer: Its value is 13%.

Question: And the Z score?
Answer: The Z score was -1.85.

Question: What does the source list for CCOc1ccc(CNC(=O)CNC2=NS(=O)(=O)C(c3ccc(C)cc3)=C2CC)cc1OC?
Answer: % Inhibition: -9%; Z score: 1.44

Question: Which “% Inhibition” value does the source give for Cc1cc(C)c2c(c1)CCN(c1nc(N)c3cnn(C)c3n1)C2 here?
Answer: The value was -4%.

Question: And the Z score?
Answer: The Z score was 0.48.

Question: With Cc1cc(C(=O)N2CCCCCCC2)no1 as the molecule, how does the “% Inhibition” value read?
Answer: The value was -14%.

Question: And the Z score?
Answer: The Z score was 2.04.

Question: NC(=O)c1ccc(CN2CCN(c3cncc4ccccc34)CC2)cc1 was tested. Which “% Inhibition” value did it give?
Answer: The value was 0%.

Question: And the Z score?
Answer: Its Z score is 0.06.

Question: What does the source list for CO[C@H]1COCC[C@@H]1Nc1nnnn1-c1ccccc1?
Answer: % Inhibition: -7%; Z score: 1.28

Question: With COc1cc2ccccc2cc1[C@@H]1CCCCN1 as the molecule, how does the “% Inhibition” value read?
Answer: The value was -11%.

Question: What about the Z score of the same molecule?
Answer: The Z score was 1.33.

Question: What does the source list for CC[C@H](NCc1nc(C(F)(F)F)cs1)c1c(C)noc1C?
Answer: % Inhibition: -11%; Z score: 1.06

Question: How did the “% Inhibition” value turn out when CCN1CCC[C@@H]1CNC(=O)Nc1c(-c2ccccc2OC)c(C)nn1C was run?
Answer: The value was -14%.

Question: And the Z score?
Answer: Its Z score is 2.05.

Question: How did the “% Inhibition” value turn out when CC(=O)Nc1ccc(CN2CC[C@H](C)S(=O)(=O)CC2)cc1 was run?
Answer: The value was -15%.

Question: And the Z score?
Answer: The Z score was 1.55.

Question: Which “% Inhibition” value does the source give for CN(Cc1nccn1C)c1ccc(F)cn1 here?
Answer: The value was -6%.

Question: And the Z score?
Answer: Its Z score is 0.61.

Question: Which results are given for CCCCc1cc(C[C@H]2CNCC[C@H]2CC(=O)N2CCCCC2)no1?
Answer: % Inhibition: -16%; Z score: 3.1

Question: Which “% Inhibition” value does the source give for CN1CCN(c2nc3c(s2)CN(C(=O)c2ccncc2)CC3)CC1 here?
Answer: Its value is -24%.

Question: What about the Z score of the same molecule?
Answer: Its Z score is 3.19.

Question: How did the “% Inhibition” value turn out when COCc1nc(C)c(C(=O)OCC2(O)CCC2)s1 was run?
Answer: Its value is 9%.

Question: What about the Z score of the same molecule?
Answer: Its Z score is -1.35.

Question: How did the “% Inhibition” value turn out when CC[C@@H](CO)N(CC1=CCCN(Cc2ccccn2)C1)C(C)=O was run?
Answer: The value was -6%.

Question: And the Z score?
Answer: Its Z score is 0.63.

Question: With Cn1ccc(NC(=O)NCCc2csc(-c3ccccc3)n2)n1 as the molecule, how does the “% Inhibition” value read?
Answer: Its value is -10%.

Question: What about the Z score of the same molecule?
Answer: The Z score was 1.44.

Question: How did the “% Inhibition” value turn out when COc1cc2nc(C)sc2cc1NC(=O)N(C)C1CC2CCC(C1)N2C (stereo not given) was run?
Answer: The value was -8%.

Question: And the Z score?
Answer: The Z score was 1.58.

Question: CC1CCN(C[C@H]2CCCN(C(=O)CC3CCCC3)CC2)CC1 was tested. Which “% Inhibition” value did it give?
Answer: The value was -6%.

Question: And the Z score?
Answer: Its Z score is 0.87.

Question: Which “% Inhibition” value does the source give for Cc1ccccc1NCCCNc1ccccc1C here?
Answer: The value was -12%.

Question: What about the Z score of the same molecule?
Answer: Its Z score is 1.59.

Question: How did the “% Inhibition” value turn out when Cc1nccn1CCCC(=O)N(Cc1ccco1)c1ccc(F)cc1 was run?
Answer: Its value is -6%.

Question: And the Z score?
Answer: The Z score was 0.89.

Question: For CCCc1nccn1Cc1ccc(Cl)s1, which “% Inhibition” value is on record?
Answer: The value was 1%.

Question: And the Z score?
Answer: Its Z score is -0.07.

Question: Which results are given for CN1CCN(C[C@@H]2OC[C@H](NS(=O)(=O)c3ccccc3)[C@H]2O)CC1?
Answer: % Inhibition: -1%; Z score: 0.2

Question: Which “% Inhibition” value does the source give for Cn1nc(-c2cnccn2)cc1CNC(=O)Cc1ccsc1 here?
Answer: The value was 15%.

Question: What about the Z score of the same molecule?
Answer: Its Z score is -1.97.

Question: How did the “% Inhibition” value turn out when CCc1ccc(O)c(C(=O)N2CCC(C(=O)N3CC(C)OC(C)C3)CC2)c1 (stereo not given) was run?
Answer: Its value is 3%.

Question: What about the Z score of the same molecule?
Answer: Its Z score is -0.33.

Question: With Cc1ccc(F)cc1CN1CCC(C(=O)NC2CC2)CC1 as the molecule, how does the “% Inhibition” value read?
Answer: Its value is -11%.

Question: And the Z score?
Answer: The Z score was 1.29.

Question: Which results are given for COCc1ncc(C(=O)N2CC(Cc3ccoc3)C2)s1?
Answer: % Inhibition: -1%; Z score: 0.08

Question: With CN1CCC(N(C[C@H]2CCOC2)C(=O)c2cccc(F)c2)CC1 as the molecule, how does the “% Inhibition” value read?
Answer: The value was 9%.

Question: What about the Z score of the same molecule?
Answer: The Z score was -1.17.

Question: What does the source list for CCn1ncc2ccc(N[C@@H](C)C3(O)CCOCC3)cc21?
Answer: % Inhibition: 38%; Z score: -1.11

Question: Which results are given for NC(=O)C1CCN([C@H]2CS(=O)(=O)C[C@@H]2S(=O)(=O)c2ccc(Cl)cc2)CC1?
Answer: % Inhibition: 1%; Z score: -0.14

Question: Which “% Inhibition” value does the source give for Cc1ccc(-c2nccn2[C@H](C(N)=O)C(C)C)c(Cl)c1Cl here?
Answer: The value was -7%.

Question: What about the Z score of the same molecule?
Answer: Its Z score is 1.01.
